The source gives many values for each of these; only a part stands here.
Experiment: Solid tumour dose-escalation study: pharmacokinetics (plasma, urine)
Format: in vivo, human
Method: The schedules for collection of blood and urine samples for PK analyses in each cohort in both studies are described in Supplementary Table 1. When necessary for clinical response assessment in the AML study, a bone marrow sample for PK analysis was collected at Cycle 1, Day 28.
The concentration of AZD1208 in plasma and urine was determined by Covance, on behalf of Clinical Bioanalysis Alliance at AstraZeneca R&D, using a bioanalytical method. A volume of 0.05 ml of K2EDTA human plasma sample was extracted by liquid–liquid extraction using 0.7 ml of methyl tert-butyl ether. Approximately 100 µl of the supernatant was transferred, evaporated to dryness and reconstituted with 350 µl of 1:1 methanol:water, and a 5 µl injection was made to the high-performance liquid chromatography (HPLC) column. HPLC separations were performed on a Phenomenex LUNA C18 (50 × 2 mm, 5 µm) column using a mobile phase of 0.1% formic acid in water (A) and 0.1% formic acid in acetonitrile (B) at a flow rate of 0.6 ml/min and a column temperature of 40 °C. AZD1208-D5 was used as the internal standard. Detection was performed in a Sciex API4000 mass spectrometer, in a positive electrospray ionisation mode, using multiple reaction monitoring detection (AZD1208: 380.0–>248.1; AZD1208-D5: 385.0–>253.1).

## N[C@@H]1CCCN(c2c(/C=C3\SC(=O)NC3=O)cccc2-c2ccccc2)C1 [AZD1208]
Cycle 0, Day 1, 0.25 h post-dose, 120 mg
  Plasma concentration of AZD1208, Gmean: n=3 1.793 ng ml
Cycle 0, Day 1, 0.25 h post-dose, 240 mg
  Plasma concentration of AZD1208, Gmean: n=7 12.83 ng ml
Cycle 0, Day 1, 0.25 h post-dose, 360 mg
  Plasma concentration of AZD1208, Gmean: n=6 29.51 ng ml
Cycle 0, Day 1, 0.25 h post-dose, 540 mg
  Plasma concentration of AZD1208, Gmean: n=7 26.29 ng ml
Cycle 0, Day 1, 0.5 h post-dose, 120 mg
  Plasma concentration of AZD1208, Gmean: n=3 20.28 ng ml
Cycle 0, Day 1, 0.5 h post-dose, 240 mg
  Plasma concentration of AZD1208, Gmean: n=7 257.5 ng ml
Cycle 0, Day 1, 0.5 h post-dose, 360 mg
  Plasma concentration of AZD1208, Gmean: n=6 343.5 ng ml
Cycle 0, Day 1, 0.5 h post-dose, 540 mg
  Plasma concentration of AZD1208, Gmean: n=7 200.2 ng ml
Cycle 0, Day 1, 0.5 h post-dose, 700 mg
  Plasma concentration of AZD1208, Gmean: n=6 139.2 ng ml
Cycle 0, Day 1, 0.5 h post-dose, 800 mg
  Plasma concentration of AZD1208, Gmean: n=6 222.3 ng ml
Cycle 1, Day 15, 8 h post-dose, 700 mg
  Plasma concentration of AZD1208, Gmean: n=4 2794 ng ml
Cycle 1, Day 15, 8 h post-dose, 800 mg
  Plasma concentration of AZD1208, Gmean: n=2 2305 ng ml
Cycle 1, Day 15, 24 h post-dose, 120 mg
  Plasma concentration of AZD1208, Gmean: n=3 919.5 ng ml
Cycle 1, Day 15, 24 h post-dose, 240 mg
  Plasma concentration of AZD1208, Gmean: n=6 624.5 ng ml
Cycle 1, Day 15, 24 h post-dose, 360 mg
  Plasma concentration of AZD1208, Gmean: n=3 632.8 ng ml
Cycle 1, Day 15, 24 h post-dose, 540 mg
  Plasma concentration of AZD1208, Gmean: n=3 459.2 ng ml
Cycle 1, Day 15, 24 h post-dose, 700 mg
  Plasma concentration of AZD1208, Gmean: n=4 869.7 ng ml
Cycle 1, Day 15, 24 h post-dose, 800 mg
  Plasma concentration of AZD1208, Gmean: n=2 929.3 ng ml
